Consider 96 compounds from the supplement of paper PMC12340641.

Whole data set: some 1,000 compounds, median “relative growth recovery (pomalidomide 10 uM = 100%, DMSO = 0%)” near -1.6, cut for the highest 2% near 21. The list shows a part of the results.

The experiment concerns HEK293FT dCK*-IKZF1. Nature of the experiment: relative growth recovery (pomalidomide 10 uM = 100%, DMSO = 0%); higher = more growth rescue (IKZF1 fusion degradation). The following applies: compound concentration: 5 uM; AraC concentration: 0.3 uM; overnight pretreatment + 4 days AraC. Here is the method: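 Growth recovery screen of the molecular-glue-like (Specs) library. HEK293FT cells expressing a dCK*-IKZF1 fusion (primary) or dCK* alone (counter) were pretreated overnight with compound at 5 uM, then given 0.3 uM AraC for 4 days. Hoechst nuclei were counted by imaging. Primary: normalised to pomalidomide (100%) and DMSO (0%), mean of 2 replicates. Counter: normalised to no-AraC (100%) and AraC+DMSO (0%), single replicate.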
In the case of `Cc1cnc(Nc2cccc(C3CN(C(=O)c4c(C(C)C)noc4C)CCO3)n2)s1` (stereo unspecified), the relative growth recovery is -3.31%.
The result for `Cc1nc(Nc2cccc(C3CCN(CC(=O)N4CCC(C)CC4)CC3)n2)sc1C` reads 14.2%; that for `CCOCC(=O)Nc1ccc(S(=O)(=O)Nc2ncccn2)cc1`, 1.86%.
The result for `Cc1cnc(Nc2cccc(C3CN(C(=O)c4ccccc4)CCO3)n2)s1` (stereo unspecified) reads -9.61%; that for `CCCOc1ccc(/C=C/C(=O)Nc2ccc(S(=O)(=O)Nc3cc(C)nc(C)n3)cc2)cc1OC`, -3.6%.
For `CC(=O)Nc1ccc(-c2csc(Nc3ccc(Cl)cn3)n2)cc1` the value was -2.84%; for `O=C(C1CCCCC1)N1CCOC(c2cccc(Nc3ncc(Cc4ccccc4F)s3)n2)C1` (stereo unspecified), 2.42%.
With `O=C(/C=C/c1cccnc1)N1CCC(c2cc3ccccc3c(Nc3nccs3)n2)CC1`, the relative growth recovery is -18.4%.
The result for `CC(=O)Nc1cccc(-c2csc(Nc3cccc(C)n3)n2)c1` reads 5.18%; that for `COc1cccc(OC)c1C(=O)N1CCOC(c2cccc(Nc3nc(C)cs3)n2)C1` (stereo unspecified), 7.41%.
The result for `Nc1cccc(Oc2ccc3c(c2)C(=O)N(c2cccc4ccccc24)C3=O)c1` reads -9.89%; that for `CCOCc1ccc(C(=O)N2CCCC2c2cccc(Nc3nc(C)c(C)s3)n2)cc1` (stereo unspecified), 6.63%; that for `Cc1cnc(Nc2cccc(C3CCN(C(=O)C4CCCCC4)CC3)n2)s1`, -12.5%.
The result for `CCOc1ccc(C(=O)Nc2ccc(S(=O)(=O)Nc3nc(C)cc(C)n3)cc2)cc1` reads 0.305%; that for `O=C(O)COCCOCCNc1cc2c(cc1F)C(=O)N(C1CCC(=O)NC1=O)C2=O` (stereo unspecified), -7.7%.
Turning to `Cc1cnc(Nc2cc(C3CCN(C(=O)C4CCCCN4C(=O)OC(C)(C)C)CC3)ccn2)s1` (stereo unspecified), the relative growth recovery is 0.335%.
For `CC(=O)Nc1ccc(S(=O)(=O)Nc2ncccn2)cc1` the value was -3.27%; for `Cc1ccnc(NS(=O)(=O)c2ccc(NC(=O)c3ccc(C)c(C)c3)cc2)n1`, 1.75%; for `COc1ccc(Cl)cc1NC(=O)CSc1nnc2c(n1)[nH]c1ccc(C)cc12`, -3.02%.
The result for `Cc1nc(C)c(C(=O)N2CCC(c3cccc(Nc4ncc(C)s4)n3)CC2)o1` reads -15.8%; that for `Cc1cnc(Nc2cccc(C3CN(C(=O)CCc4cccc(Cl)c4)CCO3)n2)s1` (stereo unspecified), -10.3%; that for `O=C(CC(c1ccccc1)c1ccccc1)Nc1ccc(S(=O)(=O)Nc2ncccn2)cc1`, -1.98%.
The result for `O=C(COc1ccccc1Cl)Nc1ccc(S(=O)(=O)Nc2ccccn2)cc1` reads 2.83%; that for `CN(C)CC(=O)N1CCC(c2cccc(Nc3ncc(-c4ccccc4)s3)n2)CC1`, -2.54%; that for `Cc1ccccc1N1C(=O)c2ccc(Oc3ccc(N)cc3)cc2C1=O`, 0.58%.
For the compound `Cc1cc(C)c(OCC(=O)Nc2ccc(S(=O)(=O)Nc3cc(C)nc(C)n3)cc2)c(C)c1`, the relative growth recovery is -3.12%.
For `COc1nccnc1NS(=O)(=O)c1ccc(NC(=S)NC(=O)/C=C/c2ccccc2)cc1` the value was -17.9%; for `CCCCc1cnc(Nc2cccc(C3CCN(C(=O)[C@@H]4CCCCN4)CC3)n2)s1`, -11.4%.
The result for `CN1CCN(CC(=O)N2CCC(c3cccc(Nc4ncc(-c5ccccc5)s4)n3)CC2)CC1` reads -17.9%.
In the case of `Cc1nc(Nc2cccc(C3CCCN3C(=O)c3ccc(=O)n(C)n3)n2)sc1C` (stereo unspecified), the relative growth recovery stood at 5.83%.
As for `O=C(CC1C=CCC1)N1CCC(c2cccc(Nc3nccs3)n2)CC1` (stereo unspecified), the relative growth recovery was -6.62%.
The result for `Cc1cc(NS(=O)(=O)c2ccc(NC(=O)c3cccnc3)cc2)nc(C)n1` reads 1.28%.
The result for `Cc1ccnc(NS(=O)(=O)c2ccc(N3C(=O)C4CC=CCC4C3=O)cc2)n1` (stereo unspecified) reads 3.23%; that for `Cc1cnc(Nc2cccc(C3CN(C(=O)C4CCCO4)CCO3)n2)s1` (stereo unspecified), -8.88%; that for `O=C(Nc1ccc(S(=O)(=O)Nc2ccccn2)cc1)c1cc2ccccc2o1`, 1.15%.
For `Cc1cc(C)c2[nH]c3nc(SCC(=O)Nc4cccc(Cl)c4C)nnc3c2c1` the value was -14.9%; for `COc1ccc(C(=O)Nc2ccc(S(=O)(=O)Nc3ccccn3)cc2)cc1`, -5.12%; for `Cc1cc(C)nc(NS(=O)(=O)c2ccc(NC(=O)c3ccc(S(=O)(=O)N(C)C)cc3)cc2)n1`, -5.78%.
`O=C1CCCC/C1=C/Nc1ccc(S(=O)(=O)Nc2cnc3ccccc3n2)cc1`: the relative growth recovery was -2.63%.
For the compound `Cc1cnc(Nc2cccc(C3CN(C(=O)Cn4c(C(F)(F)F)nc5ccccc54)CCO3)n2)s1` (stereo unspecified), the relative growth recovery came to 0.825%.
The result for `Cc1cc(C)n(CC(=O)N2CCOC(c3cccc(Nc4ncc(C)s4)n3)C2)c(=O)n1` (stereo unspecified) reads 2.22%.
As for `COCC(=O)N[C@H]1CCC[C@H]1C(=O)N1CCOC(c2cccc(Nc3ncc(C)s3)n2)C1` (stereo partly specified), the relative growth recovery is 0.57%.
As to `CC(=O)Nc1ccc(S(=O)(=O)Nc2nc(C)cc(C)n2)cc1`, the relative growth recovery amounted to 1.11%.
The result for `Cc1cnc(Nc2cccc(C3CCN(C(=O)C4(NC(=O)C(C)(C)C)CCCCC4)CC3)n2)s1` reads -12.6%.
For `O=C(COc1cccc(Cl)c1)Nc1ccc(S(=O)(=O)Nc2ncccn2)cc1` the value was -2.65%.
For `CC(C)Nc1nc(NC(C)C)nc(NS(=O)(=O)c2ccc(N)cc2)n1` the value was -1.87%; for `CC(C)C(=O)Nc1ccc(S(=O)(=O)Nc2ncccn2)cc1`, -3.75%.
On to `Cc1ccc2[nH]nc(C(=O)N3CCOC(c4cccc(Nc5ncc(Cc6ccccc6)s5)n4)C3)c2c1` (stereo unspecified), for which the relative growth recovery is -18.5%.
For `O=C1CCC(N2C(=O)c3ccc(N4CCN(C5CCC(C(=O)O)CC5)CC4)cc3C2=O)C(=O)N1` (stereo unspecified) the value was 2.25%.
The result for `Cc1c(Cl)cccc1NC(=O)CSc1nnc2c(n1)[nH]c1ccc(F)cc12` reads 1.04%.
For `COc1ccc(/C=C/C(=O)NC(=S)Nc2ccc(S(=O)(=O)Nc3nc(C)cc(C)n3)cc2)cc1OC` the value was -4.8%; for `Cc1cnc(Nc2cccc(C3CN(C(=O)C4CCCC4)CCO3)n2)s1` (stereo unspecified), -12.3%; for `Cc1cnc(Nc2cccc(C3CN(C(=O)C45CC6CC(CC(C6)C4)C5)CCO3)n2)s1` (stereo unspecified), -2.75%.
For `COc1cc(NS(=O)(=O)c2ccc(NC(C)=O)cc2)nc(OC)n1`, the relative growth recovery is -0.035%.
The result for `CN(CCCN1CCNCC1)c1cccc2c1C(=O)N(C1CCC(=O)NC1=O)C2=O` (stereo unspecified) reads 1.56%; that for `CCc1ccccc1OCC(=O)Nc1ccc(S(=O)(=O)Nc2ncccn2)cc1`, -3.74%; that for `Cc1cc(Cl)ccc1OC(C)C(=O)Nc1ccc(S(=O)(=O)Nc2ccccn2)cc1` (stereo unspecified), 0.47%.
The result for `CCCOc1ccc(C(=O)Nc2ccc(S(=O)(=O)Nc3ncccn3)cc2)cc1` reads -3.33%.
The result for `Cc1nc(Nc2cccc(C3CCN(C(=O)Cc4ccc(F)cc4)CC3)n2)sc1C` reads -4.92%; that for `CCCc1cnc(Nc2cccc(C3CCN(C(=O)c4n[nH]c5ccc(C)cc45)CC3)n2)s1`, -3.85%; that for `Cc1cnc(C(=O)N2CCCC2c2cccc(Nc3nc(C)c(C)s3)n2)cn1` (stereo unspecified), 4.79%.
Consider `NC(=O)CN1CCCC1c1cccc(Nc2nccs2)n1` (stereo unspecified), for which the relative growth recovery is -20.3%.
The result for `Cc1ccc(OCC(=O)Nc2ccc(S(=O)(=O)Nc3ncccn3)cc2)c(C)c1` reads -0.14%; that for `CCCc1cnc(Nc2cccc(C3CCN(C(=O)[C@H]4CCCC[C@H]4C(N)=O)CC3)n2)s1`, -18.1%.
For `CCC(C)C(=O)Nc1ccc(S(=O)(=O)Nc2nccc(C)n2)cc1` (stereo unspecified) the value was 0.82%.
For `Cc1ccnc(NS(=O)(=O)c2ccc(NC(=O)CCc3ccccc3)cc2)n1`, the relative growth recovery is -1.39%.
For `CC(=O)N1CCC(c2cccc(Nc3nc(C)c(C)s3)n2)CC1` the value was -9.57%; for `Cc1ccc(C)c(OCC(=O)Nc2ccc(S(=O)(=O)Nc3nc(C)cc(C)n3)cc2)c1`, -2.19%.
With `Cc1cccc(C(=O)Nc2ccc(S(=O)(=O)Nc3ncccn3)cc2)c1`, the relative growth recovery is -1.64%.
The result for `COc1ccc(NC(=O)CN2CCC(c3cccc(Nc4ncc(C)s4)n3)CC2)cc1` reads -11%.
The result for `Cc1cc(NS(=O)(=O)c2ccc(NC(=O)c3ccccc3)cc2)nc(C)n1` reads -5.71%.
The result for `O=C(COc1ccc(F)cc1)N1CCCC1c1cccc(Nc2nccs2)n1` (stereo unspecified) reads 15.1%; that for `COc1ccc(CCC(=O)N2CCOC(c3cccc(Nc4ncc(C)s4)n3)C2)cc1` (stereo unspecified), 15.7%.
As to `Cc1cnc(Nc2cc(C3CCN(C(=O)C4CCCCC4)CC3)ccn2)s1`, the relative growth recovery was -0.875%.
Take `Cc1cc(C)nc(NS(=O)(=O)c2ccc(NC(=O)CCl)cc2)n1`: the relative growth recovery was 3.25%.
For `Cc1cnc(Nc2cccc(C(C(=O)N(C)C)C3CCN(C(=O)[C@H](CC(C)C)NC(=O)OC(C)(C)C)CC3)n2)s1` (stereo partly specified) the value was 3.71%; for `CC(C)(C)C(=O)N1CCC(Cc2ccc(Nc3ncc(-c4ccc(F)cc4)s3)nc2)C1` (stereo unspecified), 1.68%; for `COc1ccc(Cl)c2c1[nH]c1nc(SCC(=O)Nc3ccc(Cl)cc3)nnc12`, 2.88%.
The result for `O=C1CCC(N2C(=O)c3cc(F)c(N4CCN(CCC5CCNCC5)CC4)cc3C2=O)C(=O)N1` (stereo unspecified) reads -5.21%; that for `Cc1csc(Nc2cccc(C3CCN(C(=O)CCn4ncc5ccccc54)CC3)n2)n1`, 6.91%; that for `CCC(=O)Nc1cccc(C(=O)Nc2ccc(S(=O)(=O)Nc3ncccn3)cc2)c1`, -1.9%.
For `CCN1C(=O)c2cccc3c(S(=O)(=O)Nc4ccccn4)ccc1c23` the value was -3.48%.
On to `CC(C)(C)c1ccccc1OCC(=O)Nc1ccc(S(=O)(=O)Nc2ncccn2)cc1`, for which the relative growth recovery was 1.46%.
For `CCCc1cnc(Nc2cccc(C3CCN(C(=O)C4CCCCC4)CC3)n2)s1` the value was -15.7%; for `CC(C)C(=O)Nc1cccc(C(=O)Nc2ccc(S(=O)(=O)Nc3ncccn3)cc2)c1`, 6.37%.
For `CCOC(=O)CCC(=O)Nc1ccc(S(=O)(=O)Nc2cc(OC)nc(OC)n2)cc1` the value was 0.685%; for `CC(=O)N1CCC(Cc2cccc(Nc3ncc(C)s3)n2)CC1`, -11.3%.
For `Cc1cc(OCC(=O)N2CCCC2c2cccc(Nc3nccs3)n2)c2ccccc2n1` (stereo unspecified) the value was 0.24%.
Consider `O=C(Nc1ccc(S(=O)(=O)Nc2ccccn2)cc1)c1cccc(Cl)c1`, for which the relative growth recovery was -1.96%.
Take `Cc1cccc(NS(=O)(=O)c2ccc([N+](=O)[O-])cc2)n1`: the relative growth recovery was 0.58%.
The result for `Cc1cnc(Nc2cccc(C3CN(C(=O)c4nccn4C)CCO3)n2)s1` (stereo unspecified) reads -1.17%; that for `Cc1cnc(Nc2cccc(C3CCCN3C(=O)c3ccccc3)n2)s1` (stereo unspecified), -2.77%.
For `Cc1cnc(Nc2cccc(C3CCN(C(=O)C4C5C=CC(C5)C4C(=O)NCCO)CC3)n2)s1` (stereo unspecified) the value was -18.2%.
For `Cc1cc(C)nc(NS(=O)(=O)c2ccc(NC(=O)COc3ccc(Cl)cc3)cc2)n1` the value was 3.77%.
For `CN1C(=O)c2cccc3c(S(=O)(=O)Nc4ccccn4)ccc1c23`, the relative growth recovery is -7.02%.
For `Cn1nccc1/C=C/C(=O)N1CCCC(c2cc3ccccc3c(Nc3nccs3)n2)C1` (stereo unspecified) the value was -10.2%.
